# Measurements from PubChem BioAssay (NCATS).
# “And” between values parts separate entries of the source, which are not always exact repeats. Identical values can stand only once. This list was built around the results that the source calls inconclusive (neither active nor inactive); the mix of calls is not that of the screen. For part of these data: Potencies of inconclusive entries are doubtful fits and often do not repeat. The source made the active and inactive calls. Unless noted, calls follow the shape of the dose curve; as a rule, active = well fitted curve in the direction sought with a large enough effect; inconclusive = small, poorly fitted or top-dose-only effect, or another doubt; inactive = no such curve, though single readings can be large; an effect the other way counts as inactive or inconclusive.
# Experiments:
# [1] = test system: Zika virus NS2B-NS3 protease (linked construct); assay: Primary screen NINDS Rhodamine qHTS for Zika virus inhibitors (AID 1347160); details: activity change, negative = inhibition: at 57.1 µM (top of the series) unless noted
# In short: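 Rhodamine110-peptide cleavage (1.5 µM substrate) by 25 nM linked NS2B-NS3 enzyme at pH 8.0 (Tris, Tween 20), after 15 min RT preincubation with compounds; 15-min fluorescence change normalized to controls and Hill-fitted.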
# [2] = Primary fluorescence-based thiol-reactive (MSTI) qHTS assay for identification of artifact compounds. (AID 1845221)
# In short: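 Reactivity toward the thiol probe MSTI (4 uM) is scored by fluorescence at Ex/Em 525/598 nm after 1 h at room temperature. Acetyl-MSTI and MSTI define the activity scale.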
# HEK293 = assay: Cytotoxic Profiling of Annotated Libraries Using Quantitative High-Throughput Screening (AID 1296008); details: Five cell lines viability, CellTiter-Glo ATP luminescence, 48-72 h; max response: stronger effect = lower value
# In short: (§1)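 Compounds were pin-transferred onto cells and incubated 48 or 72 hr at 37 degree Celsius, 95% humidity. CellTiter-Glo was added, plates sat 10 min at room temperature, then ATP-coupled luminescence was imaged as the viability read-out.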
# [3] = molecular target: Cytochrome P450 2D6 (Homo sapiens) (UniProt P10635); assay: Cytochrome P450 family 2 subfamily D member 6 (CYP2D6) small molecule antagonists: luciferase biochemical (cell-free) qHTS assay (AID 1645840; active = well fitted curve in the direction sought with a large enough effect in the repeat runs; inconclusive = weak or mixed curves; inactive = no such curve, though single readings can be large; an effect the other way counts as inactive or inconclusive)
# In short: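 P450-Glo CYP2D6 system: proluciferin substrate converted by enzyme to luciferin, read by luminescence proportional to activity. Enzyme-substrate mix with compound 10 min at room temperature, then NADPH regeneration 1 h before detection reagent.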
# [4] = molecular target: Cytochrome P450 2C9 (Homo sapiens) (UniProt P11712); assay: Cytochrome P450 family 2 subfamily C member 9 (CYP2C9) small molecule antagonists: luciferase biochemical (cell-free) qHTS assay (AID 1645842; active = well fitted curve in the direction sought with a large enough effect in the repeat runs; inconclusive = weak or mixed curves; inactive = no such curve, though single readings can be large; an effect the other way counts as inactive or inconclusive)
# In short: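 P450-Glo CYP2C9 system: proluciferin substrate with enzyme in mix containing 0.4% BSA, 10 min at room temperature, then NADPH regeneration solution added and incubated 1 h at 37C. Detection reagent stopped reaction; luminescence read after 20 min as RLU.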
# [5] = Primary qHTS for inhibitors of nuclear receptor binding SET domain protein 2 (NSD2) in an isogenic RCH-ACV NSD2 p.E1099K mutant (9B) (AID 1645876)
# [6] = Primary qHTS for inhibitors of nuclear receptor binding SET domain protein 2 (NSD2) in an RCH-ACV wild type WT cells (2C) (AID 1645877); details: activity change, negative = cell killing: at 44.9 µM (top of the series) unless noted
# [7] = P-glycoprotein substrates identified in KB-8-5-11 adenocarcinoma cell line, qHTS therapeutic library screen (AID 1346987)
# In short: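 Compounds are pinned in dose-response onto KB-8-5-11 cells (500 cells/well, colchicine-free medium) and left 72 h at 37 degree C. CellTiter-Glo luminescence then yields AC50 values.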
# [8] = Panc-1005 Cancer Cell Toxicity qHTS against the NCATS CANVASS Library (AID 1347349); details: Panc-1005 viability, CellTiter-Glo luminescence, 72 h
# In short: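 Toxicity is measured over 72 h of compound exposure at 37 degrees C under 5% CO2. Each well holds 1000 cells, pre-incubated for 4 hours before dosing across an 11-point range. CellTiter-Glo luminescence gives viability.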
# [9] = A2780 Cisplatin Sensitive Ovarian Cancer Cell Toxicity qHTS against the NCATS CANVASS Library (AID 1347353)
# In short: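 Cisplatin-sensitive A2780 ovarian cells (750/well) received compound in 11 concentrations, and were incubated 72 h at 37 °C. ATP content was measured by ATPLite luminescence; bortezomib served as control.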
# [10] = HPAF-II 12hr Apoptosis Induction qHTS against the NCATS CANVASS Library (AID 1347358)
# In short: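 Caspase-3/7 activation by DEVD-substrate luminescence (Caspase-Glo 3/7, 15 min, room temperature) after a 12-hour compound exposure in 11 concentrations, of HPAF-II pancreatic cells seeded at 500/well in DMEM with 10% FBS.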
# [11] = SDT Cancer Cell Toxicity qHTS against the NCATS CANVASS Library (AID 1347365)
# In short: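 Cytotoxicity taken from CellTiterGlo ATP luminescence after 72 hr at 37C, 5% CO2. Canine glioma line SDT, 500 cells/well, treated at 11 concentrations; bortezomib dose series as control.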
# [12] = molecular target: Nuclear receptor subfamily 1 group I member 3 (Homo sapiens) (UniProt Q14994); assay: qHTS for Constitutive Androstane Receptor (CAR) Agonist screened against the NCATS CANVASS Library (AID 1347373); details: HepG2-hCAR-CYP2B6 luciferase reporter, ONE-Glo luminescence
# In short: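 Agonist mode with 1.5uM PK11195 present: compounds for 24hr on HepG2-hCAR-CYP2B6 cells. CellTiter-Fluor fluorescence (ex 405, em 540 nm) gives viability; ONE-Glo luminescence reports CAR activation.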
# [13] = qHTS assay for small molecule disruptors of mitochondrial membrane potential screened against the NCATS CANVASS Library (AID 1347389)
# In short: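 Mitochondrial membrane potential in HepG2: 1 h compound treatment (11-point concentration series), 30 min m-MPI dye at 37C, then dual fluorescence of J-aggregates (ex 540/em 590) and monomers (ex 490/em 535); lower red/green ratio indicates depolarization.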
# [14] = Secretion counterscreen for inhibitors of the SERCaMP assay screened against the NCATS CANVASS Library (AID 1347390)
# In short: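 Luminescence from constitutively secreted GLuc in SH-SY5Y-GLuc STOP cells, read after coelenterazine addition, served as read-out. Compounds tested 0.001 - 77 uM for 20 h at 37C; Brefeldin A as positive control.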
# [15] = qHTS for inhibitors of Wild type Zika virus screened against the NCATS CANVASS Library (AID 1347396)
# In short: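 Luminescent CellTiter Glo read-out of virus-induced cytotoxicity, 72 h post-infection, in Vero 766 cells. Compounds were tested at 11 concentrations; uninfected, vehicle-treated wells defined 100% inhibition.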
# HaCat = assay: Cytotoxic Profiling of Annotated Libraries Using Quantitative High-Throughput Screening (AID 1296008); details: Five cell lines viability, CellTiter-Glo ATP luminescence, 48-72 h; max response: stronger effect = lower value
# In short: as §1
# CAOV3 = assay: Primary qHTS to identify gynecologic anti-cancer compounds using libraries of approved drugs and bioactive compounds (AID 1345084); details: Gynecologic cancer cell panel viability, ATPlite luminescence, 48 h; activity change, negative = cytotoxicity: at 57.5 µM (top of the series)
# In short: (§2)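 Measured: luminescence after ATPlite addition (15 min, RT). Exposure: 48 h, 37 C, 5% CO2.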
# JEG-3 = assay: as above; details: Gynecologic cancer cell panel viability, ATPlite luminescence, 48 h; series mostly up to 57.5 µM
# In short: as §2
# SKOV3 = assay: as above; details: Gynecologic cancer cell panel viability, ATPlite luminescence, 48 h; series mostly up to 57.5 µM
# In short: as §2
# [16] = Primary redox qHTS assay for identification of artifact compounds. (AID 1845223); details: Amplex Red/HRP redox cycling with DTT, fluorescence; redox activity (% of DA3003): at 53.8 µM (top of the series)
# In short: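 Redox-cycling detection via DTT (250 uM final) oxidation coupled to Amplex Red (25 uM)/HRP (250 mU/mL) in HBSS. 15 min preincubation plus 30 min after DTT, room temperature. Ex/Em 525/598 nm; 4-parameter Hill fit against DMSO and 10 uM DA3003.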
# [17] = molecular target: Phospholipid hydroperoxide glutathione peroxidase GPX4 (Homo sapiens) (UniProt P36969); assay: Primary qHTS Assay for Inhibitors of Recombinant Selenoprotein Glutathione Peroxidase 4 (GPX4) (AID 1845192)
# In short: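 qHTS, GR-coupled: GPX4 200 nM + cpd 30 min RT → GSH 1 mM, NADPH 0.5 mM, GR 100 nM → CHP 0.5 mM start; fluor 340/450 at t0 and t15 min; no-enzyme wells as control.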
# [18] = molecular target: Calcium and integrin-binding protein 1 (Homo sapiens) (UniProt Q99828); assay: Primary qHTS for Identification of Calcium Integrin Binding Protein 1 (CIB1) Competitor (AID 1508620)
# In short: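 Fluorescence polarization competition: CIB1-GST (1 uM final) preincubated with compound 15 min at room temperature, then FITC-labeled alphaIIb peptide (100 nM final) added for another 15 min. Polarization read at Ex 480/Em 540.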
# Chain of UniProt P10635 (P10635 whole entry, looked up): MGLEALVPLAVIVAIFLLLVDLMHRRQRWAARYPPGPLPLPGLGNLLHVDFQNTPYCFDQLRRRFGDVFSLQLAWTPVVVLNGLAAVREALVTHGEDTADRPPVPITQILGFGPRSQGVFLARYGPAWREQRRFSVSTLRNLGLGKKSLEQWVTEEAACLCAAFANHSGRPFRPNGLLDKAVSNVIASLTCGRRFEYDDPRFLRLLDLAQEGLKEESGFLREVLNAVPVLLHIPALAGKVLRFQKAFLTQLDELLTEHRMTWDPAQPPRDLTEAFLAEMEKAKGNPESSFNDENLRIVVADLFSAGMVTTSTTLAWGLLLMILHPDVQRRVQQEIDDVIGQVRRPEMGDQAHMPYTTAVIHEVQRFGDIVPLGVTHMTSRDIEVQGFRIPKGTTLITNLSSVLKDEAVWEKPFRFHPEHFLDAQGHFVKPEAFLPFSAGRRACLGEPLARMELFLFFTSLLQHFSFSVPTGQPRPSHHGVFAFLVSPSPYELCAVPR
# Chain of UniProt P11712 (P11712 whole entry, looked up): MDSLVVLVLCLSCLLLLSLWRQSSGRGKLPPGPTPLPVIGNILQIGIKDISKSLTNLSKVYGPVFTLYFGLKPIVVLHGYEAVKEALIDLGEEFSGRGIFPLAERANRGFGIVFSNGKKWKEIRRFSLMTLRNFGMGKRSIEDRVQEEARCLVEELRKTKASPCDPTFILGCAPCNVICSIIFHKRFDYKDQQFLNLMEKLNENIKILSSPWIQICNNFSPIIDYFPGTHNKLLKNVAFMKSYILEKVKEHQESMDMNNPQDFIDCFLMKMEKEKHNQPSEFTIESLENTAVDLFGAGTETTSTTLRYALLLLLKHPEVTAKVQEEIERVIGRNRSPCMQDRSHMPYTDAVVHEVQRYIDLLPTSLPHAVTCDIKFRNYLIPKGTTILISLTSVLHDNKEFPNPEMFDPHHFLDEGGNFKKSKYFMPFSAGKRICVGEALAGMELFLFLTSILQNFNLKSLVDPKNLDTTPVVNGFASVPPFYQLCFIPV
# Chain of UniProt P36969 (P36969 whole entry, looked up): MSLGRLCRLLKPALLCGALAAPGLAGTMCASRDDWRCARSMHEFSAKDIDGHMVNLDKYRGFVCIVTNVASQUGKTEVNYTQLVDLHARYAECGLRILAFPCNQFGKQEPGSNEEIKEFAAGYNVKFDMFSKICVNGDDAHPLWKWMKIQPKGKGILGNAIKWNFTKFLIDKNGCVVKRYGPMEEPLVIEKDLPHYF
# Chain of UniProt Q99828 (Q99828 whole entry, looked up): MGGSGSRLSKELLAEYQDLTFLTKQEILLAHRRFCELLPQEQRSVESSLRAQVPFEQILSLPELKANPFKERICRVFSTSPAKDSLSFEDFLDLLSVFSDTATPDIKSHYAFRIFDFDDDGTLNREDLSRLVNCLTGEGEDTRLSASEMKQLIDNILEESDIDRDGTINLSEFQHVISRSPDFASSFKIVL
# Chain of UniProt Q14994 (Q14994 whole entry, looked up): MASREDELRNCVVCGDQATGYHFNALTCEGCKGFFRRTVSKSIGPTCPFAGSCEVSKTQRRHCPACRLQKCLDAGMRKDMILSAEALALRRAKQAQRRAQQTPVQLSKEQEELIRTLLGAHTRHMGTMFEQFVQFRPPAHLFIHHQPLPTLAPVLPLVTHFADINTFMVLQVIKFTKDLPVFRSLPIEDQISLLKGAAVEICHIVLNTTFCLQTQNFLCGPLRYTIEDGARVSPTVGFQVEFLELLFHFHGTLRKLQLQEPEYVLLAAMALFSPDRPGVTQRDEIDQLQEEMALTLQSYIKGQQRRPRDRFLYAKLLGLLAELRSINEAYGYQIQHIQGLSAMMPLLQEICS
compound,measurement,setting,value
COc1cc(C(=O)OC[C@@]2(O)CO[C@@H](O[C@H]3[C@H](Oc4ccc(O)cc4)O[C@H](CO)[C@@H](O)[C@@H]3O)[C@@H]2O)cc(OC)c1O,Potency,[1],"inconclusive: 12.6 µM [inhibitor, single point]"
same,Potency,[2],"inconclusive: 5 µM [inhibitor, partial curve]"
same,max response,HEK293,inactive: -3.3%
CC(C)N(C[C@H]1O[C@@H](n2cnc3c(N)ncnc32)[C@H](O)[C@@H]1O)C1CC(CCc2nc3ccc(C(C)(C)C)cc3[nH]2)C1 (some centres not stated),Potency,[3],"active: 16.9 µM and inconclusive: 21.3 µM [inhibitor, single point]"
same,Potency,[4],"inconclusive: 23.9 µM [inhibitor, single point] and inconclusive: 26.8 µM [inhibitor, single point]"
same,Potency,[5],"inconclusive: 23 µM [inhibitor, partial curve, poor fit] and inactive"
same,Potency,[6],"inconclusive: 23 µM [inhibitor, partial curve] and inactive"
same,Potency,[2],inactive
same,Potency,HEK293,"inconclusive: 29.1 µM [inhibitor, single point]"
CC1=C2C(=O)O[C@@H](c3ccoc3)[C@]2(C)CCC1,Potency,[7],inactive
same,Potency,[8],"inconclusive: 13.3 µM [cytotoxic, partial curve, poor fit]"
same,Potency,[9],inactive
same,Potency,[10],inactive
same,Potency,[11],inactive
same,Potency,[12],"inconclusive: 14.8 µM [activator, partial curve]"
same,Potency,[13],"inconclusive: 6.6 µM [inhibitor, full curve]"
same,Potency,[14],inactive
same,Potency,[15],inactive
same,Potency,[5],inactive
same,Potency,[6],"inconclusive: 23 µM [inhibitor, partial curve]"
same,Potency,HaCat,"inconclusive: 51.7 nM [inhibitor, full curve, poor fit]"
same,max response,HaCat,inactive: 0.193%
same,Potency,CAOV3,inactive
same,Potency,JEG-3,"inconclusive: 35.5 µM [rising, single point]"
same,Potency,SKOV3,inactive
C=CC(C)(O)CO[C@@H]1O[C@H](CO)[C@@H](O)[C@H](O)[C@H]1O (some centres not stated),Potency,[2],"inconclusive: 15 µM [inhibitor, partial curve]"
same,Potency,[16],inactive
same,outcome,HEK293,inactive
CC(=O)OC1CC(C(C)(C)O)OC2CCC3(C)OC4=C(C(=O)C=C5C(C)C(OC(C)=O)C6(C)C(C)OC546)C(O)C3C12C (configuration not stated),Potency,[1],inactive
same,Potency,[16],"inconclusive: 6.3 µM [activator, partial curve]"
same,max response,HEK293,inactive: -23.5%
COc1c2c(nc3occc13)C(CC=C(C)C)(OC)C(O)CC2 (configuration not stated),"activity change, negative = cell killing",[6],inconclusive: -30.8% [inhibitor]
same,Potency,HEK293,"inconclusive: 20.2 µM [inhibitor, single point]"
O=C(c1ccccn1)N(Cc1cccs1)C1(C(=O)NC2CCCCC2)CCCCC1,Potency,[5],inactive
same,Potency,[6],inactive
same,Potency,[17],inactive
same,Potency,HEK293,"inconclusive: 29.1 µM [inhibitor, single point]"
CCNC(=O)CCC/C=C\C[C@@H]1[C@@H](/C=C/C(O)CCc2ccccc2)[C@@H](O)C[C@@H]1O (some centres not stated),outcome,HaCat,inactive
C=C1CC[C@@]2(OC1)O[C@H]1CC3[C@@H]4CC=C5C[C@H](O[C@H]6OC[C@@H](O)C(O)[C@@H]6O[C@@H]6O[C@@H](C)[C@H](O)[C@@H](O[C@@H]7O[C@H](CO)[C@@H](O)[C@H](O)[C@H]7O)[C@H]6O)C[C@@H](O)[C@]5(C)C4CC[C@]3(C)[C@H]1[C@@H]2C (some centres not stated),Potency,[5],"inconclusive: 6.9 µM [inhibitor, single point]"
same,Potency,[6],"inconclusive: 3.46 µM [inhibitor, single point]"
same,Potency,[16],"inconclusive: 5.05 µM [activator, partial curve, poor fit]"
same,max response,HEK293,inactive: -14.3%
Cc1ccc(CNc2ncnc3ccc(-c4ccc(CO)o4)cc23)o1,Potency,[18],"inconclusive: 50.1 µM [inhibitor, partial curve]"
same,Potency,[5],active: 2.58 µM
same,Potency,[17],"inconclusive: 16.1 µM [inhibitor, single point]"
same,Potency,HEK293,"inconclusive: 0.82 µM [inhibitor, full curve, poor fit]"
COc1cc(-c2nc(N[C@H](CO)Cc3ccccc3)ccc2C(=O)NCCOc2ccccc2)cc(OC)c1OC,Potency,[5],"inconclusive: 29 µM [inhibitor, single point]"
same,Potency,[6],"inconclusive: 29 µM [inhibitor, single point]"
same,Potency,HEK293,"inconclusive: 29.1 µM [inhibitor, single point]"
O=C1Nc2ccccc2-c2nc3ccccc3c(=O)n2-c2c(O)cccc21,Potency,[2],"inconclusive: 6.56 µM [inhibitor, partial curve]"
same,Potency,[16],"inconclusive: 26.1 µM [activator, single point]"
same,Potency,HEK293,"inconclusive: 20.2 µM [inhibitor, single point]"
CCN(CC)C(=O)C(c1ccccc1)N1CCN(c2ccc(NC(=O)c3ccccc3-c3cccnc3)cc2F)CC1 (configuration not stated),Potency,[3],"inconclusive: 19 µM [inhibitor, single point]"
same,Potency,[2],"inconclusive: 10.6 µM [inhibitor, partial curve, poor fit]"
same,Potency,HEK293,"inconclusive: 16.4 µM [inhibitor, single point]"
COCCCNC(=O)c1ccc(Cn2c(=O)c3ccccc3n(Cc3ccc(C(C)C)cc3)c2=O)cc1,Potency,[3],inactive
same,Potency,HEK293,"inconclusive: 29.1 µM [inhibitor, single point]"
